In a collection of fitness landscapes (doi:10.1016/j.celrep.2020.107928):
In all, about 81,000 sequences were measured (“one-hybrid fitness for binding NBS DNA”: median about -0.1, highest 2% from about 0.36 on). The list shows a part of the results.

B1: Caulobacter ParB omega fusion; a variant is named by its letters at X, in order, B8GW30 (parent)
chain: MESVVVGEPGMSEGRRGLGRGLSALLGEVDAAPAQAPGEQLGGSREAPIEILQRNPDQPRRTFREEDLEDLSNSIREKGVLQPILVRPSPDTAGEYQIVAGERAWRAAQRAGLKTVPIMVRELDDLAVLEIGIIENVQRADLNVLEEALSYKVLMEKFERTQENIAQTIGKSXSHVANXMRLLXLPDEVQSYLVSGELTAXHARAIAAAADPVALAKQIIEGGLSVRETEALARKAPNLSAGKSKGGRPPRVKDTDTQALESDLSSVLGLDVSIDHRGSTGTLTITYATLEQLDDLCNRLTRGI

Variants of: B1
Experiment: one-hybrid fitness for binding NBS DNA (the Noc-binding site; scaled: cognate 1, non-cognate 0); higher = stronger binding
Conditions: with NBS DNA site
How it was run: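 Bacterial one-hybrid selection in E. coli USO rpoZ- hisB- pyrF- with a HIS3 reporter carrying the site 19 bp from the promoter, screening Caulobacter ParB libraries with four specificity codons randomised (NNS). Cells grew 48 hours at 37°C on M9-minus-histidine plus 0.1 mM IPTG and 5 mM 3-AT. Plasmids before and after selection were Illumina-sequenced, three replicate libraries pooled, and variants under 10 reads dropped. Fitness is the log change in variant-to-wild-type read ratio, rescaled to cognate 1, non-cognate 0.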

one-hybrid fitness for binding NBS DNA, 0.525:
RRHH

one-hybrid fitness for binding NBS DNA, ≤ 0.2:
RMIP
RTED
PAAR
RKDC
IKVW
ARRH
PHSI
NRHT
HSML
GTTW
IRSN
RCYK
HLQN
TRFH
SDPF
PTIW
FASW
YTNC
HEIY
KRWH
HVCT
RYKV
NLMN
TYTI
WAGE
HPGG
CGYC
PLNN
GSRL
DVRF
AWFS
QDTS
DDWR
SAHW
QNKN
INIS
IHTG
GWQS
THHL
TQRN
MHYR
HCNY
QISV
SPHK
GNRN
ALCV
EPNK
INQE
QKEA
SWRC
NTFW
RDPF
DGVD
WFMG
PCAA
NMFC
VCMT
WTAC
RGPT
RVPL
LYKV
SPFL
ARAD
WRHG
AAFE
PKRC
HTLN
LKKG
YLGM
AIEY
MMGG
TLIA
RYTQ
ERAL
AIKG
KYRY
REHS
WTYW
PTAR
VRLI
VDFR
PATA
TKKN
